Test results taken from the supplement of paper PMC3334620.
In all, about 33,000 sequences were measured (“E-score (-0.5 to 0.5)”: median about -0.054, highest 2% from about 0.35 on). The list shows a part of the results.

biological target: T1, Stb5 (UniProt P38699); experiment: PBM E-score (8-mer binding enrichment) (E-score (-0.5 to 0.5)); higher = stronger / more preferred TF binding; most listed sequences are background and not binding sites; settings: protein concentration: 200 nM; construct: GST-full length
T1 sequence: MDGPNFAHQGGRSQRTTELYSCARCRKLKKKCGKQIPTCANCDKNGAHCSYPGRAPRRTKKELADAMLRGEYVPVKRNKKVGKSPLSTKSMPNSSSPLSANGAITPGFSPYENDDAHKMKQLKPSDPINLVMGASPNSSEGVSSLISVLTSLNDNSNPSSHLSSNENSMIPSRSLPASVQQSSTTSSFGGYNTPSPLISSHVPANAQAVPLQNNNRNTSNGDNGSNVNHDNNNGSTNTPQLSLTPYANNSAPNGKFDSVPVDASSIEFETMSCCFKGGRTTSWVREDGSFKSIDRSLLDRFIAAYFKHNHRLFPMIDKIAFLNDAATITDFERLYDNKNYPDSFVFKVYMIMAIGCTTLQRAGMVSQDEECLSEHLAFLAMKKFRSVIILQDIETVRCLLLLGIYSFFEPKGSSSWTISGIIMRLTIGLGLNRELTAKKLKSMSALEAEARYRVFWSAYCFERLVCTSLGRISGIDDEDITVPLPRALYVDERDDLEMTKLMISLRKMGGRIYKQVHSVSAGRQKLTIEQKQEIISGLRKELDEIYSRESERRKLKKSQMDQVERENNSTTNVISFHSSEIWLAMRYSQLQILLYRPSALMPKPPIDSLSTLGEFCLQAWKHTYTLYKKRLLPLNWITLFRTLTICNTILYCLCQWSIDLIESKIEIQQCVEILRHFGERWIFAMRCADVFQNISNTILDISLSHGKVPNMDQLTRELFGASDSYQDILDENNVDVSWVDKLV
Protocol: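 Universal 'all 10-mer' protein binding microarrays (Agilent AMADID 015681) probed with GST-tagged S. cerevisiae TFs (full-length or DBD) made by in vitro transcription/translation (PURExpress), about 100-200 nM. Bound TF was detected with fluorescent anti-GST. Each ungapped 8-mer (which stands for itself and its reverse complement) is scored by the PBM enrichment score (E-score), a modified Wilcoxon-Mann-Whitney statistic from -0.5 to +0.5, computed with the Universal PBM Analysis Suite. Scale: above 0.35 generally sequence-specific binding.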

Row | Sequence | PBM E-score
1 | CGCAACCC | -0.11
2 | CTGTCAGC | -0.0676
3 | GTGGAAAC | -0.00304
4 | CATAAACA | 0.0561
5 | ACAGGTCT | -0.254
6 | CTAGGTTA | 0.0388
7 | GAGTACAC | -0.136
8 | CGTTTAGC | 0.244
9 | AAATTGAG | -0.206
10 | ATTAGCGG | 0.24
11 | ATAACCGC | 0.323
12 | ATCAGGCG | -0.104
13 | AACCCTTG | -0.0666
14 | AATGCACA | -0.0352
15 | AGCTAATA | -0.149
16 | CATCGGAA | 0.145
17 | GGATCACC | 0.125
18 | CTTAATTC | -0.0333
19 | GACAGCGA | 0.241
20 | ACCTATTG | -0.141
21 | GGAATCCC | 0.0392
22 | ATCACCCA | -0.146

Row | Sequence | PBM E-score
23 | GGTTATTA | 0.163
24 | GTACGACA | -0.115
25 | AGCACCCG | 0.153
26 | GCGGCTCC | 0.0658
27 | ACGAATAT | -0.0846
28 | CGCTTAGC | 0.0735
29 | CCGTGGCA | 0.0411
30 | AGCTCTAT | -0.111
31 | AGGTAAAC | 0.133
32 | GAATCCAC | -0.133
33 | CATATCCG | 0.15
34 | CGTGCAAG | 0.0388
35 | CAACGTGC | -0.0319
36 | ATATAGCG | 0.131
37 | AGCACCAT | -0.0231
38 | CTCCGTCC | 0.322
39 | AAAAGCAT | -0.0942
40 | AATTCCGC | 0.262
41 | GTGCGGAA | 0.017
42 | GATTCAAC | -0.0115
43 | ATGACCAC | -0.215
44 | GGACCATA | 0.0335

Row | Sequence | PBM E-score
45 | CAGTCTGC | -0.146
46 | AGGGACAC | -0.174
47 | GGGGCTTA | 0.271
48 | ACTTCACG | -0.161
49 | AGCGACGC | -0.0666
50 | ACGATAGC | 0.0317
51 | ACTTTAGA | -0.109
52 | ACGCATTC | -0.0675
53 | CACAGATA | -0.271
54 | CGTTGATC | -0.0579
55 | AAAGATGT | -0.0992
56 | CCTAGCCC | -0.0748
57 | GAGGAGCC | -0.161
58 | CACAGGCA | -0.251
59 | AACGGAGA | 0.247
60 | ATATCGCG | 0.0512
61 | ACTCCAGG | 0.0251
62 | GCTAGTAA | -0.0348
63 | AGTGTATA | -0.177
64 | CAATCTAA | 0.00448
65 | GAGTTCGC | 0.0473
66 | AGCGAGCT | -0.079

Row | Sequence | PBM E-score
67 | CGCGTGAG | -0.025
68 | AGGTTCAC | -0.164
69 | GACCGGTA | 0.231
70 | AAACTACT | -0.106
71 | AACGGCTC | 0.0467
72 | AGCTGTCA | -0.27
73 | CTCCACTC | -0.151
74 | CGCCTTAG | 0.165
75 | AACGCCCA | -0.0339
76 | CACAGGGA | 0.0345
77 | CGTTCGGA | 0.243
78 | CAGAAACC | -0.15
79 | GGCAGTCA | -0.11
80 | CAAGGCTG | -0.26
81 | CGTGCGTC | 0.171
82 | CATTCACC | 0.17
83 | CGGCCGGC | 0.284
84 | GGTAACTA | 0.293
85 | AACGTACA | -0.109
86 | CCTAAAAG | -0.127
87 | CAGGAAAG | -0.165
88 | ACGCGTGA | -0.138

Row | Sequence | PBM E-score
89 | ACTGTGGC | -0.254
90 | CAAAAGCG | 0.195
91 | ACAAAACT | -0.0319
92 | GGAATTCA | -0.0427
93 | CACGGGGG | 0.117
94 | TGACCTCA | -0.0882
95 | CAATGCTG | -0.125
96 | GGAGTACA | 0.0255
97 | CTTGGCAA | -0.319
98 | CAGATCTG | -0.333
99 | AATTAAGT | 0.0344
100 | AATTCAGA | -0.0824
101 | CGACAAAC | 0.052
102 | ACTGGAGC | 0.00185
103 | CGTCGTAC | 0.0941
104 | GGCACGAA | 0.0383
105 | CTGATCAA | -0.0915
106 | CATCGGAG | 0.237
107 | CCAGCAGA | -0.203
108 | CTGCAAGC | -0.173
109 | GAATAGAC | -0.114
